Measured values taken from PubChem BioAssay AID485313 (National Center for Advancing Translational Sciences (NCATS), 2010).
In all, about 320,000 compounds went through this assay and about 7,600 (2.4%) were called active. This list was built around the results that the source calls inconclusive (neither active nor inactive); the mix of calls is not that of the screen. Calls come from the whole dose curve; as a rule, active = well fitted activation curve with a large enough effect; inconclusive = small, poorly fitted or top-dose-only effect; inactive = no such curve, though single readings can be large or run the other way. No potency is given beside an inconclusive call; the fits are too rough.

Test: qHTS Assay for NPC1 Promoter Activators; note: nearly all actives have a fitted effect of over 60% in size;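 for activation: reporter is driven by a mutant NPC1 promoter; % of control where 0% means no effect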
Conditions: Huh7 NPC1 promoter luciferase reporter, 24 h; series mostly up to 9.22 µM; activation: at the top concentration
In short: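 Huh7 cells stably carrying NPC1 promoter–luciferase, plated in Opti-MEM with 10% FBS for 2 h, were exposed to compound in DMSO for 24 h at 37 °C; luciferase reagent was added for 10 min and luminescence read.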
Potency is the fitted concentration of half-maximal effect; tags give direction and shape of the fitted curve.

Row | SMILES | Potency | activation
1 | CC(C)C(=O)N1CCc2cc(-c3csc(N)n3)ccc21 | inconclusive [activator, partial curve] | –
2 | Cc1ccc(C(=O)N(Cc2nnc(-c3ccc(Cl)cc3)o2)C2CC2)o1 | – | inactive: 0.571%
3 | CN(C)c1cccc(/C=C(\C#N)c2ccccc2)c1 | inconclusive [activator, partial curve] | –
4 | Cc1ccc(OCCCC(=O)Nc2cc(Cl)ccc2-n2cncn2)cc1 | – | inactive: -1.02%
5 | CCOC(=O)c1ccc(Oc2nc(OC)cc(OC)n2)cc1 | – | inactive: 1.17%
6 | Cc1cc(C)c(C)c(S(=O)(=O)N2CCC(C(=O)Nc3ccncc3)CC2)c1C | – | inactive: -4.65%
7 | O=C(CCOc1ccccc1)Nc1ccc(Br)cc1 | inconclusive [activator, single point] | –
8 | Cc1ccnc(NC(=O)c2ccc(NC(=O)c3ccco3)cc2)c1 | active: 3.98 µM | –
9 | Cc1cc(C)n(CC(=O)NC2CCCc3c2cnn3-c2ccc(C)c(C)c2)n1 (configuration not stated) | inconclusive [activator, single point] | –
10 | COc1ccc(C(=O)Nc2scc(-c3ccc(Cl)cc3Cl)c2C(N)=O)cc1 | active: 2.82 µM | –
11 | CCN(CC)CCNC(=O)c1cc(Nc2ccc(OC)c(OC)c2)nc2ccccc12 | – | inactive: 0.823%
12 | COc1ccc(Cc2nc(C(=O)NCc3ccccc3OC)cs2)cc1 | – | inactive: -4.65%
13 | CCCCNc1ncnc2c1cnn2-c1ccc(C)cc1C | – | inactive: -0.663%
14 | NS(=O)(=O)c1ccc(Nc2nc(-c3ccc4ccccc4c3)cs2)cc1 | – | inactive: -5.47%
15 | CCn1c(/C=C/c2ccccc2C)nc2ccccc2c1=O | – | inactive: -0.131%
16 | O=C(NCc1ccc2c(c1)OCO2)Nc1ccc([N+](=O)[O-])cc1 | – | inactive: -7.27%
17 | Cc1nn(CCOc2ccccc2)c(=O)n1-c1ccccc1 | inconclusive [activator, single point] | –
18 | CCn1cc(C(=O)OCC(=O)Nc2ccc(C(C)C)cc2)c(=O)c2ccc(C)nc21 | – | inactive: 0.158%
19 | O=c1oc2cc(O)ccc2cc1-c1ccccc1 | inconclusive [activator, single point] | –
20 | COc1ccc2cc(/C(C)=N/NC(=O)C3CC3)ccc2c1 | active: 2.51 µM | –
21 | COCCNC(=O)C1CCC(CNS(=O)(=O)c2ccc(F)cc2)CC1 (configuration not stated) | inconclusive [activator, single point] | –

Row | SMILES | Potency | activation
22 | Fc1ccc(OCc2nnc(-c3ccccc3Br)o2)c(Cl)c1 | inconclusive [activator, partial curve] | –
23 | Cc1cc(C(=O)NCCC2=CCCCC2)c(C)o1 | active: 1 µM | –
24 | Cc1csc2ncc(C(=O)Nc3ccccc3F)c(=O)n12 | inconclusive [activator, partial curve] | –
25 | CCOc1ccc2nc(NC(=O)CSc3nnc(-c4ccncc4)n3CC3CCCO3)sc2c1 (configuration not stated) | inconclusive [activator, single point] | –
26 | CN(C)S(=O)(=O)c1ccc(Cl)c(NC(=O)COC(=O)CC(NC(N)=O)c2ccc(Cl)cc2)c1 (configuration not stated) | inconclusive [activator, single point] | –
27 | O=C1CNC(=O)/C(=C\c2ccc(F)cc2)N1 | – | inactive: 4.03%
28 | CC(/C=N/NC(=O)c1nn(C)c(C)c1Br)=C\c1ccccc1 | inconclusive [activator, single point] | –
29 | Cc1cccc(NC(=O)c2cc3c(s2)-c2c(C)cccc2OC3)n1 | inconclusive [activator, partial curve] | –
30 | Cc1ccc(Cn2ccc(=O)c(OCc3ccccc3)c2C)cc1 | inconclusive [activator, single point] | –
31 | Cc1ccc(Nc2nnc(SCC(=O)Nc3cccc(S(=O)(=O)N4CCCCC4)c3)s2)cc1 | – | inactive: 15.5%
32 | COc1ccc2sc3ccccc3c(=O)c2c1OC | inconclusive [activator, single point] | –
33 | COC(=O)c1sc(-c2ccc(C(C)(C)C)cc2)cc1NC(=O)c1ccccc1C(=O)O | – | inactive: 15.4%
34 | CC(=O)Nc1ccc(S(=O)(=O)Nc2cccc(C(=O)NC(C)(C)C)c2)cc1 | – | inactive: -0.804%
35 | CC(=O)Nc1ccc(N/C=C/C(=O)c2ccc(Cl)cc2)cc1 | inconclusive [activator, single point] | –
36 | CC1=CN2C(=N)/C(=C/c3ccco3)C(=O)N=C2S1 | active: 2.51 µM | –
37 | Cc1ccc(C(=O)Nc2ccc([N+](=O)[O-])cn2)o1 | inconclusive [activator, single point] | –
38 | Cc1ccc(-n2c(=O)c3sccc3n(Cc3cc(=O)n4ccccc4n3)c2=O)cc1 | – | inactive: -3.77%
39 | Cc1cccc(NC(=O)c2sc3ncn(CC(=O)N4CCN(c5ccccn5)CC4)c(=O)c3c2C)c1 | – | inactive: 0.0932%
40 | COc1ccccc1NC1=C(NC(C)=O)C(=O)c2ccccc2C1=O | – | inactive: -8.97%
41 | O=C(CCCC(=O)N1CCN(c2ccccc2F)CC1)c1ccccc1 | inconclusive [activator, partial curve] | –
42 | COc1ccccc1OC(C)C(=O)Nc1ccc2c(c1)OCCO2 (configuration not stated) | – | inactive: -0.721%

Row | SMILES | Potency | activation
43 | COCCNc1nc2sc3c(c2c(=O)n1Cc1ccco1)CCCCC3 | inconclusive [activator, partial curve] | –
44 | CCOc1ccc2nc(NC(=O)CSC3=NCCS3)sc2c1 | inconclusive [activator, partial curve] | –
45 | COC(=O)c1sc(NC(=O)COc2ccccc2)nc1C | inconclusive [activator, partial curve] | –
46 | Cc1ccc2[nH]c(=O)c(-c3nc4ccccn4c3NCc3ccco3)cc2c1 | inconclusive [activator, partial curve] | –
47 | O=C1C(Cc2ccccc2)Nc2ncnc(N3CCCCC3)c2N1Cc1ccc(Cl)cc1 (configuration not stated) | – | inactive: -1.68%
48 | O=C(NC(=S)Nc1ccccc1Cl)c1ccco1 | inconclusive [activator, single point] | –
49 | CCCCOc1ccc(C(=O)NCCc2cccs2)cc1 | active: 3.98 µM | –
50 | CC(/C=C/c1ccc(OCc2ccccc2)cc1)=N\O | active: 2.82 µM | –
51 | COCCn1c(C)cc(C(=O)COC(=O)/C=C/c2c(C)nn(C3CCS(=O)(=O)C3)c2Cl)c1C (configuration not stated) | – | inactive: 0.851%
52 | CC(C)C(=O)Nc1nc2c(c(=O)[nH]1)CCCC2 | – | inactive: -7.22%
53 | CN1c2ccsc2C(O)=C(C(=S)Nc2ccc(F)c(Cl)c2)S1(=O)=O | – | inactive: -2.95%
54 | Cc1cc(C)n2nc(-c3ccccc3)cc2n1 | inconclusive [activator, partial curve] | –
55 | O=C(CSc1nnc(-c2cccnc2)n1Cc1ccco1)c1ccccc1 | inconclusive [activator, single point] | –
56 | COCc1cc(=O)[nH]c(Nc2nc3ccc(C)cc3o2)n1 | – | inactive: 22.6%
57 | NC(=O)c1ccsc1NC(=O)COC(=O)c1nc(Cl)ccc1Cl | – | inactive: 0.0519%
58 | Cc1cc(NC(=O)Nc2cc(Cl)sc2Cl)no1 | – | inactive: 13.3%
59 | CC1(C)Cc2c(sc(NC(=O)c3ccc4ncsc4c3)c2C(N)=O)C(C)(C)N1 | inconclusive [activator, single point] | –
60 | c1ccn2c(c1)nc1c2nc2ccccn21 | inconclusive [activator, partial curve] | –
61 | O=C(N/N=C/c1ccccc1)c1ccco1 | inconclusive [activator, single point] | –
62 | O=C(N1CCN(c2ccc(F)cc2)CC1)C1(c2cccs2)CCOCC1 | – | inactive: -3.66%
63 | Cc1ccc(C(=O)Nc2nc3ccccc3c(=O)s2)cc1 | inconclusive [activator, single point] | –

Row | SMILES | Potency | activation
64 | NC(=O)c1c(/N=C/c2cccs2)sc2c1CCCC2 | active: 1.26 µM | –
65 | CN(C(=O)c1ccc(=O)n(Cc2ccc(Cl)cc2)c1)c1ccccc1 | – | inactive: -3.39%
66 | CCc1ccc(CNC(=O)Cc2ccc(NC(=O)C3=C(C)OCCS3)cc2)cc1 | inconclusive [activator, single point] | –
67 | Cc1cccc(NC(=O)Nc2ccc3c(c2)CCC3)c1 | active: 2 µM | –
68 | Cc1ccc(/C=C/C(=O)c2c(C)nc3ccccn23)cc1 | inconclusive [activator, single point] | –
69 | CC(C)(C)NC(=O)C(Cc1ccccc1)NS(=O)(=O)c1cccc2nsnc12 (configuration not stated) | – | inactive: -1.51%
70 | O=C1CCCC(O)=C1N=Nc1ccc2c(c1)OCO2 | inconclusive [activator, single point] | –
71 | O=C(NCCCc1ccccc1)C(=O)NCC1OCCN1S(=O)(=O)c1ccc(F)cc1 (configuration not stated) | – | inactive: -5.29%
72 | O=C(N/N=C/c1cccnc1)c1ccc2c(c1)OCO2 | inconclusive [activator, single point] | –
73 | O=C(Nc1cc(-c2ccccc2)cs1)c1ccco1 | inconclusive [activator, partial curve] | –
74 | Cc1[nH]c(C)c(S(=O)(=O)NCc2ccco2)c1C(=O)N1CCCCC1 | – | inactive: -0.667%
75 | NC(=O)c1ccccc1NC(=O)/C=C/c1ccc(Cl)cc1 | active: 1.78 µM | –
76 | COCCNC(=O)/C(C#N)=C/c1cc(C(C)C)c(OC)cc1C | – | inactive: -3.78%
77 | O=C(/C=C/c1ccc2c(c1)OCO2)Nc1nc2ccccc2s1 | active: 1.58 µM | –
78 | CCOc1cc(-c2ccccc2)nc(N)n1 | inconclusive [activator, single point] | –
79 | COc1ccc(NS(=O)(=O)c2ccc3oc(SCC(N)=O)nc3c2)cc1 | – | inactive: -1.37%
80 | Fc1ccc(NC(=S)NN=C2CCCCCC2)cc1 | inconclusive [activator, partial curve] | –
81 | O=Cc1c(Nc2cccc(C(F)(F)F)c2)nc2ccccn2c1=O | inconclusive [activator, partial curve] | –
82 | Cc1ccccc1C(=O)Nc1ccc(Br)cn1 | inconclusive [activator, partial curve] | –
